According to PubChem BioAssay AID1347165 (National Center for Advancing Translational Sciences (NCATS), 2019):
Several values for one entry are separate records, joined by “and”; a condition that tells them apart may be missing. Equal entries are not always repeated. Screen size: about 220,000 compounds; about 5,700 (2.6%) were called active. Inconclusive means that the source gave no clear call. Such entries were picked first, then a sample of the others. Calls come from the whole dose curve; as a rule, active = well fitted inhibition curve with a large enough effect; inconclusive = small, poorly fitted or top-dose-only effect; inactive = no such curve, though single readings can be large or run the other way. Potencies beside an inconclusive call are fits to weak or partial responses and may not hold up.

Biological target: Lysine-specific demethylase 5B (Homo sapiens) (UniProt Q9UGL1)
Assay: Primary screen for KDM5B Histone Demethylases FDH-coupled qHTS; note: nearly all actives have a fitted effect of over 70% in size
Settings: FDH-coupled NADH fluorescence (FDH is formaldehyde dehydrogenase); series mostly up to 57.7 µM
Method in brief: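 KDM5BΔAP (200 nM final) in 50 mM HEPES pH 7.5, 0.01% Tween-20 was preincubated 10 min at RT with compound over a concentration range. Substrate mix (H3K4me3 12.5 µM, α-KG 25 µM, Fe²⁺, ascorbate, NAD⁺, FDH) was added, and NADH fluorescence change over 30 min gave dose-response curves.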
Potency is the fitted concentration of half-maximal effect; tags give direction and shape of the fitted curve.

Chain of UniProt Q9UGL1 (Q9UGL1 whole entry, looked up): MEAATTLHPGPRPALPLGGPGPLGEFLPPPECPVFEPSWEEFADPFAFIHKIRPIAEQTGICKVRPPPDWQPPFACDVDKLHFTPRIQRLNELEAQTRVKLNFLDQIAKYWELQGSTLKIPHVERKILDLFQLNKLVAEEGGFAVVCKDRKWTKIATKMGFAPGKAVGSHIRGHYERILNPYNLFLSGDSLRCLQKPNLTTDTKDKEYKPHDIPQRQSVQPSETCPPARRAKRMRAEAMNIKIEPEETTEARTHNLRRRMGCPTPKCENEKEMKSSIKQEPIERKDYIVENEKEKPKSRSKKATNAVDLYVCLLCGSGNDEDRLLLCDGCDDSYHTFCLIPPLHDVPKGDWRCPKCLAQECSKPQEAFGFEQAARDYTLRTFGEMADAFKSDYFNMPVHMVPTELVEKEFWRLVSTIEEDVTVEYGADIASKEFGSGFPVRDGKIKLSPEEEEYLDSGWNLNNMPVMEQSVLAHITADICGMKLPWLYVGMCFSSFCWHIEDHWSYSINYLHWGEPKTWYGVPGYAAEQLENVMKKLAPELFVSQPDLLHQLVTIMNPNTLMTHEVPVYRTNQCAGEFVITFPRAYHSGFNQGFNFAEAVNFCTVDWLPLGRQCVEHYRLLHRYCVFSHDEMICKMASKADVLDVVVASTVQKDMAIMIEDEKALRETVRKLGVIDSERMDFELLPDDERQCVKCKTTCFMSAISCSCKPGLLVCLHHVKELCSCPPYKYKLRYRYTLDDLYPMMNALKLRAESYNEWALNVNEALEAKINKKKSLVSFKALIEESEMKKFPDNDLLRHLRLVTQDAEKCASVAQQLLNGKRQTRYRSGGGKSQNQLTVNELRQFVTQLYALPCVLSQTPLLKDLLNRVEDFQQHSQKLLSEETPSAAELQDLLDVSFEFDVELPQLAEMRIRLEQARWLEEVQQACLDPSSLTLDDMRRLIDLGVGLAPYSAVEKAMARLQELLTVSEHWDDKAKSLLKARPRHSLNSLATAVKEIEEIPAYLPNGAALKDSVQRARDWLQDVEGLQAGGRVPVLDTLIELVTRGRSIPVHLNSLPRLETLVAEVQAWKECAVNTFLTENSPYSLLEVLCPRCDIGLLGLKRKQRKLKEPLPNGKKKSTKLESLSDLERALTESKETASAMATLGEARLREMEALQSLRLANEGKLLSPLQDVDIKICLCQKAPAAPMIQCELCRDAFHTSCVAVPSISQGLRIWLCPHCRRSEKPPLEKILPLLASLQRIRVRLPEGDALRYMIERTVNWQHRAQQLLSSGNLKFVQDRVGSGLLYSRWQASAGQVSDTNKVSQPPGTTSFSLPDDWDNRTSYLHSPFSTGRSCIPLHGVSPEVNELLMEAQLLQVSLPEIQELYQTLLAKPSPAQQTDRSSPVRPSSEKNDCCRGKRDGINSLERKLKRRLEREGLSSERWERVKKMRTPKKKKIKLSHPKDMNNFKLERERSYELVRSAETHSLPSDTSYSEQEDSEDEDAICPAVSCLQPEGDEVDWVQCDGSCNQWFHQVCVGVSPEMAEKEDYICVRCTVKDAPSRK

SMILES | Potency
Cc1cc(=O)oc2cc(NC(=O)Cc3c(Cl)cccc3Cl)ccc12 | inconclusive: 39.8 µM [inhibitor, single point]
CCCn1cc2c3c(cccc31)CN(C(=O)COc1ccccc1)CC2 | active: 31.6 µM
CCCCc1c(C)c2ccc3oc(/C(=N/O)c4ccc(C)cc4)c(C)c3c2oc1=O | inconclusive: 25.1 µM [inhibitor, partial curve, poor fit]
O=C(Nc1ccccc1C(F)(F)F)N1CC=C(c2c[nH]c3ccccc23)CC1 | inconclusive: 15.8 µM [inhibitor, partial curve, poor fit]
Cc1nc(N2CCN(c3ccccn3)CC2)c2c(C)c(C(=O)Nc3ccc(F)cc3F)sc2n1 | inconclusive: 39.8 µM [inhibitor, single point]
Cc1cc(=O)n(CC(=O)Nc2ccc(C)c(F)c2)c(N(C)Cc2ccccc2)n1 | inactive
COc1ccc(-c2cc3nc(C)c(CCC(=O)NC(C)c4ccccc4)c(C)n3n2)c(OC)c1 (stereo not drawn) | inconclusive: 25.1 µM [inhibitor, partial curve, poor fit]
O=C(NCCN1CCOCC1)c1c(OCC2CC2)cc(=O)n2c1CCOCC2 | inactive
Cc1cc(C(=O)O)ccc1-c1ccc(/C=N/O)o1 | inconclusive: 20 µM [inhibitor, partial curve, poor fit]
COc1ccc(NC(=O)c2cc(-c3ccc(C)o3)nc3ccccc23)c(OC)c1 | inconclusive: 39.8 µM [inhibitor, partial curve, poor fit] and inconclusive: 31.6 µM [inhibitor, partial curve, poor fit]
Cc1nn2c(c1-c1ccccc1-c1ccccc1)N(CC1CC1)CCC2 | active: 28.2 µM
COc1ccc(-c2oc3ccc(OC)cc3c2C(=O)Nc2ccc(C(C)=O)cc2)cc1 | inactive
O=C(Nc1ccc(F)cc1)c1cc2n(n1)CC(c1ccc(Br)cc1)OC2 (stereo not drawn) | inconclusive: 22.4 µM [inhibitor, single point]
CCc1cccc(NC(=O)CCc2c[nH]c3ccccc23)c1 | inconclusive: 20 µM [inhibitor, partial curve, poor fit]
Cc1cc(=O)oc2cc(Br)ccc12 | inactive
COc1ccc(S(=O)(=O)NCC(c2ccc(N(C)C)cc2)N2CCc3ccccc32)cc1F (stereo not drawn) | inconclusive: 22.4 µM [inhibitor, partial curve, poor fit]
COc1ccccc1-c1cn(C)c(=O)n2cc(COc3ccc(C(=O)O)cc3)nc12 | inactive
CCOC(=O)c1ccccc1NC(=O)COC(=O)CC(C)(C)CC1=NS(=O)(=O)c2ccccc2N1 | inconclusive: 28.2 µM [inhibitor, partial curve, poor fit]
Cc1nc(S/C(=C\c2ccc(-c3ccc(C(=O)O)c(Cl)c3)o2)C(=O)O)n[nH]1 | inconclusive: 17.8 µM [inhibitor, partial curve, poor fit]
COc1ccccc1-c1nc2nccc(-c3cc(OC)c(OC)c(OC)c3)n2n1 | active: 25.1 µM
COCCNc1oc(-c2ccc(OC)cc2)nc1C#N | inconclusive: 28.2 µM [inhibitor, partial curve, poor fit]

SMILES | Potency
Cc1cccc(-c2noc([C@@H]3Cc4nc[nH]c4CN3C(=O)Nc3cccc(C#N)c3)n2)c1 | inconclusive: 31.6 µM [inhibitor, partial curve]
CCOC(=O)c1cccc(NC(=O)N2CC=C(c3c[nH]c4ccccc34)CC2)c1 | inconclusive: 31.6 µM [inhibitor, partial curve, poor fit]
COc1cccc(N2CCN(c3ncnc4c3c(-c3ccccc3)cn4-c3cccc(C(F)(F)F)c3)CC2)c1 | inconclusive: 14.1 µM [inhibitor, partial curve, poor fit]
Cc1cc(Nc2ccc(Br)c(C)c2)n2nc(-c3ccco3)nc2n1 | inconclusive: 35.5 µM [inhibitor, partial curve, poor fit]
CCOC(=O)C(C)Sc1nc(-c2ccccc2)ccc1C#N (stereo not drawn) | inconclusive: 31.6 µM [inhibitor, partial curve, poor fit]
O=C(CCc1c[nH]c2ccccc12)N1CCC([C@@H]2CNC[C@H]2CO)CC1 | inconclusive: 39.8 µM [inhibitor, single point]
COc1cccc(NC(=O)C2CCN(S(=O)(=O)c3ccc4[nH]c5c(c4c3)CCCCC5)CC2)c1 | inconclusive: 15.8 µM [inhibitor, partial curve, poor fit]
O=C(NCC1CN(Cc2ccccn2)CC12CN(c1ccccc1)C2)c1ccccc1 (stereo not drawn) | inconclusive: 31.6 µM [inhibitor, single point]
COc1ccc(-c2cc(C(=O)NCCc3ccc(OC)c(OC)c3)c3c(-c4ccc(F)cc4)[nH]nc3n2)cc1 | inconclusive: 31.6 µM [inhibitor, partial curve, poor fit]
COc1cccc(-c2cc3c(=O)n(CCNC(=O)c4ccccn4)ccn3n2)c1 | active: 31.6 µM
CCOC(=O)c1ccc(NC(=O)Cn2c3ncccc3c(=O)n2-c2ccc(C)c(C)c2)cc1 | inconclusive: 2.82 µM [inhibitor, partial curve, poor fit]
CCOc1ccc(S(=O)(=O)N2CCC(c3ccncc3)CC2)cc1 | inactive
CC(C)CCNC(=O)Cn1ccn2nc3c(c2c1=O)CCCC3 | active: 20 µM
COCCNC(=O)c1cc(-c2ccc(C)nc2)cc2ncn(C)c12 | inconclusive: 35.5 µM [inhibitor, partial curve, poor fit]
O=C(CSc1nc2cc([N+](=O)[O-])ccc2o1)Nc1ccc(Cl)cc1 | inactive
CCOc1ccc(-c2nc(CS(=O)Cc3cccc(OC)c3)cs2)cc1OC (stereo not drawn) | inconclusive: 22.4 µM [inhibitor, partial curve, poor fit]
CC(=O)Nc1cccc(NC(=O)CSc2ccc(-c3sc(-c4ccccc4)nc3C)nn2)c1 | inconclusive: 31.6 µM [inhibitor, partial curve, poor fit]
O=C(O)CCc1ccc(-c2ccccc2)n1-c1ccc(C(=O)O)cc1 | inconclusive: 20 µM [inhibitor, partial curve, poor fit]
COCCCNC(=O)CCc1cc2ccccc2[nH]c1=O | inconclusive: 31.6 µM [inhibitor, partial curve, poor fit]
N#Cc1cccnc1NCCc1coc(-c2ccccc2)n1 | inconclusive: 25.1 µM [inhibitor, partial curve, poor fit]
COc1cccc(Nc2ncc(-c3c(C)noc3C)c3c2OCC3)c1 | active: 35.5 µM

SMILES | Potency
COc1cc(/C=C/c2ccc3cccc(O)c3n2)ccc1OC(C)=O | inactive
COc1ccccc1CNC(=O)Cn1ccc2cc(Cl)ccc21 | inactive
CCN(CC)CCCn1c(-c2ccccc2)cn2c3ccccc3nc12 | inconclusive: 28.2 µM [inhibitor, single point]
Cc1nc2cc(NC(C)C(=O)Nc3c(C)cccc3C)ccc2o1 (stereo not drawn) | inconclusive: 39.8 µM [inhibitor, single point]
CC(=O)Oc1ccc(-c2cc3ccc(OC(C)=O)cc3oc2=O)cc1 | inconclusive: 4.47 µM [inhibitor, partial curve, poor fit]
CC(=O)Nc1ccc(S(=O)(=O)N2CCN(c3cc(C(F)(F)F)ccn3)CC2)cc1 | inconclusive: 35.5 µM [inhibitor, partial curve, poor fit]
COc1ncccc1-c1cc(C(=O)NCCN2CCOCC2)c2c(c1)ncn2C | active: 35.5 µM
Cc1nn2c(=O)cc(COC(=O)c3cccc(NC(=O)c4ccc(F)cc4)c3)nc2s1 | inconclusive: 39.8 µM [inhibitor, single point]
Cc1ccc(Cl)cc1NC(=O)Cn1c(=O)n(C(C)C)c(=O)c2oc3ccccc3c21 | inconclusive: 15.8 µM [inhibitor, partial curve, poor fit]
COc1cc(NC(=O)c2ccc3c(c2)N(C)C2CCCN2C3=O)cc(OC)c1 (stereo not drawn) | inconclusive: 17.8 µM [inhibitor, partial curve, poor fit]
N#C/C(=C\c1c(Cl)cccc1Cl)c1nc2ccccc2[nH]1 | inconclusive: 22.4 µM [inhibitor, partial curve, poor fit]
Nc1cc(Nc2ccccc2)c2nonc2c1[N+](=O)[O-] | inconclusive: 31.6 µM [inhibitor, partial curve, poor fit]
COc1ccc(C(=O)NCC(c2ccc(N(C)C)cc2)N2CCc3ccccc32)cc1OC (stereo not drawn) | inconclusive: 31.6 µM [inhibitor, partial curve, poor fit]
COc1cc(C(=O)NCCc2ccccc2)ccc1OCC(=O)N1CCOCC1 | inactive
Cc1ccc(OCC(=O)Nc2ccccc2OCc2cc(=O)n3ccccc3n2)cc1C | inactive
Cc1ccnc(NC(=O)CCc2ncc(-c3ccccc3)o2)c1 | inactive
COc1ccc(CN2CCc3oc(C)c(C(=O)NCCN4CCCC4)c3C2)cc1 | inconclusive: 17.8 µM [inhibitor, partial curve]
O=C(NC1CC1)C(Sc1cccc(C(F)(F)F)c1)c1ccccc1 (stereo not drawn) | inactive
O=C(NCc1ccc(Cl)cc1)C1CC(=O)N(c2n[nH]c3cccc(F)c23)C1 (stereo not drawn) | active: 20 µM
COc1cc(C(=O)NCc2coc(-c3cccs3)n2)ccc1C | inconclusive: 39.8 µM [inhibitor, single point]
CCOC(=O)Cn1nc2sc3ccccc3n2c(=O)c1=O | inconclusive: 17.8 µM [inhibitor, partial curve, poor fit]
